Data published in the supplement of paper PMC12217912.
This is one part of the list. Sequences were assembled here from the parent chain. Inactive controls read about 0.05.

B1: TEV protease; numbered along this chain (parent)
chain: MGESLFKGPRDYNPISSSICHLTNESDGHTTSLYGIGFGPFIITNKHLFRRNNGTLVVQSLHGVFKVKDTTTLQQHLVDGRDMIIIRMPKDFPPFPQKLKFREPQREERICLVTTNFQTKSMSSMVSDTSCTFPSGDGIFWKHWIQTKDGQCGSPLVSTRDGFIVGIHSASNFTNTNNYFTSVPKNFMELLTNQEAQQWVSGWRLNADSVLWGGHKVFMVKPEEPFQPVKEATQL

Variants of: B1
Assay: raw area under fraction-flipped curve 0-4 h after induction (AUC4h, not background-subtracted), DNA-recorder readout of cleavage of the substrate (dimensionless); higher = more cleavage of the substrate by the protease variant
Details: temperature: 34 °C; time window: 0-4 h after rhamnose induction
Protocol: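 In vivo DNA recorder in E. coli TOP10(DE3) ΔrhaA at 34 °C. Each TEVp single-site mutant (parent TEVp 0) is paired with a single-site variant of the 7-mer TEVs (canonical ENLYFQ|S). The substrate sits between flexible linkers in a Bxb1-sfGFP-TEVs-SsrA fusion, so cleavage stabilises Bxb1 and speeds flipping of a recombination array, read by NGS. The value is the raw area under the fraction-flipped curve over 0-4 h after rhamnose induction (AUC4h), with ≥20 reads per time point. It is not background-subtracted; inactive controls average about 0.047.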
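Further: Bxb1 expression induced with 0.2% (w/v) L-rhamnose at OD600 near 0.5, cultures sampled hourly, flipped fraction per protease–substrate barcode pair counted by paired-end Illumina sequencing.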

Variant	area with substrate ENLYFAS	area with substrate ENLYFDS	area with substrate ENLYFFS	area with substrate ENLYFGS	area with substrate ENLYFHS	area with substrate ENLYFIS	area with substrate ENLYFNS	area with substrate ENLYFPS	area with substrate ENLYFTS	area with substrate ENLYFVS	area with substrate ENLYFWS	area with substrate ENLYFCS	area with substrate ENLYFES	area with substrate ENLYFMS	area with substrate ENLYFKS	area with substrate ENLYFSS	area with substrate ENLYFYS	area with substrate ENLYFRS	area with substrate ENLYFLS
H62M	0.0516	0.0529	0.077	0.0602	0.0647	0.0485	0.0625	0.073	0.0372	0.0553	0.0608								
K68Q	0.0422	0.075			0.0454	0.0566		0.0579	0.0705		0.0505	0.0608	0.0872	0.0599					
K68L	0.0453	0.0552	0.078		0.0533	0.0577	0.0579	0.0453	0.0645	0.0663	0.0464	0.0536	0.0613	0.0601	0.0749	0.0495	0.0482		
D82W	0.0465		0.0414		0.055	0.0554	0.0445	0.0551		0.0535		0.0498	0.057	0.0654	0.0621	0.0633		0.0585	
D82F	0.0586		0.0593	0.051		0.0491	0.0481	0.0586	0.069	0.059	0.0485	0.0581	0.0502	0.0523	0.0522	0.0615	0.0505	0.044	0.048
L61K	0.0537			0.0546		0.0518							0.0672	0.075			0.0538	0.0563	
L61D	0.0582		0.0717	0.0642	0.0619	0.0552	0.0608	0.0687	0.0527		0.0537	0.0691	0.0658	0.0682	0.0737	0.0575		0.0649	0.0574
I84C	0.0562		0.0641			0.05		0.0402	0.0734	0.0583	0.0486		0.0626	0.0721		0.0441	0.0617	0.055	0.0671
H76I	0.0741		0.0818		0.0517	0.0558		0.0668				0.059		0.0513	0.0583	0.0225	0.0542	0.0204	
H76Q	0.0507					0.064		0.0708	0.0669		0.0606	0.0511	0.0698	0.0783		0.0507			
H76A	0.0588	0.0664	0.0719			0.0652	0.0615	0.0579	0.0605	0.059		0.0577	0.0607	0.0821			0.0649	0.0496	
S60E	0.0459	0.0465	0.0471	0.0504	0.0448	0.0419	0.0462	0.0461	0.0538	0.0448	0.048	0.0384	0.0477	0.0474	0.0424	0.0564	0.0288	0.0512	0.0549
S60Y	0.0596		0.0703		0.0613	0.0549	0.0657			0.0473		0.0516	0.0674	0.0598		0.051		0.0485	0.0537
S60D	0.0789				0.0646	0.0257		0.0396	0.052	0.0497	0.0196	0.0508	0.0376	0.0714	0.0501	0.0499	0.0443	0.047	0.0527
R81D	0.0441	0.0583	0.0668		0.054	0.0585	0.0647	0.0444			0.0481	0.0495	0.0531	0.064	0.094	0.0456			
T70D	0.0496		0.0392	0.0141	0.0573	0.0432	0.0667	0.0584	0.0509	0.0377	0.0573	0.0496	0.0637	0.0497		0.0702			
T70A	0.0918		0.0584	0.0518		0.0528	0.0532	0.0547	0.0597	0.0419	0.0649	0.0237	0.0608	0.0665	0.052		0.0607	0.0759	0.0701
T70W	0.0587			0.063	0.067	0.0613	0.059	0.0614	0.0637	0.058	0.0604	0.057	0.0605	0.0647	0.0775	0.0565	0.0583		0.063
G63D	0.0729	0.0874	0.0762	0.0413	0.0643	0.0584			0.0527	0.0442	0.0595	0.0522	0.0584	0.0527	0.053	0.0459		0.03	
Q74E	0.0536		0.066			0.0491	0.0636	0.0682	0.0796	0.0578		0.0479	0.0676		0.0545				
Q74W	0.0573		0.071			0.0586	0.0539	0.0507	0.0661	0.0539		0.0582	0.0725			0.065	0.071	0.0603	
D69R	0.0575	0.0572	0.0704	0.0583		0.0585	0.0632	0.0737	0.0683	0.0532		0.0271	0.0628	0.0623	0.0552		0.0528	0.0539	0.0325
F65T	0.0807		0.0781	0.0664		0.0594	0.0628	0.0661	0.0573			0.0351	0.0674	0.0666	0.0767	0.0671		0.0606	0.0515
L77D	0.0772	0.0437	0.0436		0.0594	0.0636	0.0567	0.0163	0.0608	0.059	0.0523	0.0599	0.051	0.0578	0.0888	0.0397	0.0688	0.0587	0.0598
L77V	0.0665		0.0839	0.0684		0.059		0.05	0.056	0.0506		0.067		0.0545	0.0567		0.045		
I85M	0.0826	0.0519	0.0425		0.0413	0.0551	0.052	0.068	0.0492			0.0546			0.0524				
